Measurements published in the supplement of paper PMC3334620.
Whole data set: some 33,000 sequences, median “E-score (-0.5 to 0.5)” near -0.054, cut for the highest 2% near 0.35. Some of the results follow.

The sequences below were run against T1, Stb5 (UniProt P38699) (assay: PBM E-score (8-mer binding enrichment) (E-score (-0.5 to 0.5)); higher = stronger / more preferred TF binding; most listed sequences are background and not binding sites). Conditions: protein concentration: 200 nM; construct: GST-full length.
T1 sequence: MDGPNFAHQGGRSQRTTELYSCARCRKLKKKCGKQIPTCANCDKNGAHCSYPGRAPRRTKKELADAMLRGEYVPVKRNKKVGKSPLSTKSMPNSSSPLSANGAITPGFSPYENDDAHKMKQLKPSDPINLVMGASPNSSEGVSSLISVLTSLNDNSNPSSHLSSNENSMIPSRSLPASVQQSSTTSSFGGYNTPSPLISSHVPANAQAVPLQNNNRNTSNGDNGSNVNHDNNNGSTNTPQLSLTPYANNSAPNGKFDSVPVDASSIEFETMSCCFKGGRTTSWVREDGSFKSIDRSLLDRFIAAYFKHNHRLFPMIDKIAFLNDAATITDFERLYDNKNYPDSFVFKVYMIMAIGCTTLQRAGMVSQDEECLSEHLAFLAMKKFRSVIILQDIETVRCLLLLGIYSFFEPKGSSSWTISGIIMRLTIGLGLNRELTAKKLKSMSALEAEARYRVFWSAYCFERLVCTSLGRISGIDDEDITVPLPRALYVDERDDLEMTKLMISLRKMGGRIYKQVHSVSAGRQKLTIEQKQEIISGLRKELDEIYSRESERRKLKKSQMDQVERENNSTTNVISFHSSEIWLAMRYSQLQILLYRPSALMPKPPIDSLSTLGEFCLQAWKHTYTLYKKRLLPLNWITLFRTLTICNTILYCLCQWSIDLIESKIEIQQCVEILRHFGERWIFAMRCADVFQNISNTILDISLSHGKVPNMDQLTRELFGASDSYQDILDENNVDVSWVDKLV
Procedure: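 Universal 'all 10-mer' protein binding microarrays (Agilent AMADID 015681) probed with GST-tagged S. cerevisiae TFs (full-length or DBD) made by in vitro transcription/translation (PURExpress), about 100-200 nM. Bound TF was detected with fluorescent anti-GST. Each ungapped 8-mer (which stands for itself and its reverse complement) is scored by the PBM enrichment score (E-score), a modified Wilcoxon-Mann-Whitney statistic from -0.5 to +0.5, computed with the Universal PBM Analysis Suite. Scale: above 0.35 generally sequence-specific binding.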

Row | Sequence | PBM E-score
1 | CTACTGGC | -0.167
2 | CTGGCCCC | -0.0201
3 | AACACTCG | -0.0704
4 | GGTCCACA | -0.0714
5 | CTCTGAGC | -0.3
6 | AAAGGACC | 0.212
7 | ATGACCAA | -0.0477
8 | CTCCAGCA | -0.259
9 | TATCCCAA | -0.00571
10 | ACGTTACG | -0.0767
11 | ACGACACG | 0.0906
12 | AGACTTAG | -0.122
13 | GTAACCCA | -0.177
14 | AGGAACAA | -0.0803
15 | ACTAAGAA | -0.0691
16 | TATGAGGA | -0.186
17 | AGTTCGGC | 0.0437
18 | TACATTGA | -0.111
19 | CATCGTAG | -0.138
20 | CCTAGTTA | 0.141
21 | CCCACTCA | -0.26
22 | GGCCATAC | 0.157
23 | ACGAGTCC | 0.00708
24 | GGACCAAA | 0.209
25 | ACGCTTAC | -0.201

Row | Sequence | PBM E-score
26 | CATATCAC | 0.0389
27 | ATTGTAGC | 0.0323
28 | ATCTATCC | 0.143
29 | AGGTATCA | -0.119
30 | GCGGGCTA | 0.218
31 | CCGTACTA | 0.18
32 | ACGAGCAT | -0.346
33 | AAACCCCG | 0.476
34 | GATTACTA | 0.106
35 | CCAGGGTA | -0.105
36 | CACTAGCG | 0.0813
37 | CAAGCCTA | -0.272
38 | CTTTGGAC | -0.0747
39 | ATTCTCGG | 0.0669
40 | GTCACCAC | 0.0379
41 | ACCAACGA | -0.123
42 | AGCTTTCG | -0.116
43 | CAAGGTCC | 0.127
44 | TCCCGAGA | 0.0599
45 | GCACAAGA | -0.125
46 | ACTCTCCA | -0.0128
47 | ATCCCTTC | -0.136
48 | AACGACGC | -0.0247
49 | CAACCCGC | 0.169
50 | CGCCCAAA | 0.0165

Row | Sequence | PBM E-score
51 | CGCTGAAC | -0.138
52 | GCCAGTGA | -0.214
53 | ACATCACC | 0.158
54 | ACAATATG | 0.0599
55 | CCATAAAA | -0.0329
56 | CACTTACG | 0.034
57 | AACGCCTG | -0.0861
58 | CTTGAACC | -0.0984
59 | AATATATT | 0.208
60 | GACAGCCA | -0.339
61 | TCACAGAA | -0.147
62 | ACAAAATA | -0.0759
63 | CCGAACAG | 0.208
64 | CGTGTAGC | -0.209
65 | GATGAATC | -0.198
66 | ACTCTAAC | -0.0984
67 | CTATACTC | -0.00519
68 | AGCCGCCC | 0.144
69 | CTCGCGGC | 0.164
70 | AGTCGCAC | -0.058
71 | AATTCTTG | -0.282
72 | CGATTCCC | 0.035
73 | AGTGAGTG | -0.0629
74 | CAGGGTAC | -0.21
75 | CAGCCGGC | 0.217

Row | Sequence | PBM E-score
76 | AACCCGAT | 0.222
77 | GGGAGTGA | -0.0152
78 | AGAAGGCT | -0.363
79 | CTAACCAA | -0.133
80 | CCTGACCC | 0.0495
81 | TACGGTAA | 0.162
82 | CAGCGCTA | 0.078
83 | CCTCGAAG | -0.101
84 | AGGTTATA | -0.0254
85 | ATAAAGTC | 0.183
86 | CCGTAGTA | -0.0189
87 | GGCTTCAA | -0.102
88 | GCTGAACA | -0.0963
89 | ATACTGAT | -0.202
90 | CCTTCTCA | -0.135
91 | CTTTGTGA | -0.118
92 | ACCCGGCC | 0.188
93 | AAAGAGTA | -0.0917
94 | AGCTTTGA | 0.058
95 | CGGAAGTC | 0.204
96 | CCTGAAAG | -0.264
97 | GATTGGTA | -0.149
98 | AGGCAACG | -0.101
99 | GACCCCTC | -0.131
100 | GACCACAC | -0.152

Row | Sequence | PBM E-score
101 | GCGCGCGC | 0.19
102 | GGCCCTAC | 0.21
103 | AGGCTTCG | 0.0448
104 | GATCTTAA | 0.024
105 | ACGCTCCG | 0.174
106 | ACGAGATC | -0.0495
107 | GCACGCGC | 0.0505
108 | AGTAATTG | -0.0651
109 | GTTAAGGA | 0.0417
110 | ACTGGGCT | -0.235
111 | AGACTGAC | -0.166
112 | CTTGCCTA | -0.21
113 | ATGTATAG | 0.0955
114 | ATTGCCTA | -0.113
115 | CGCGTCCC | -0.065
116 | CTGCGTCA | -0.121
117 | CACCGGCA | 0.377
118 | AGTTCGTC | -0.0675
119 | AACTTTAG | -0.0896
120 | AGGCGGAC | 0.356
121 | AGTTACGA | -0.124
122 | CGACATGC | 0.0496
123 | CGAGGCGA | -0.265
124 | AGCCCTCC | -0.28
125 | AATACACG | -0.157

Row | Sequence | PBM E-score
126 | GCTGAAGC | -0.195
127 | AAGCTCAA | -0.18
128 | CTCTCTTC | -0.237
129 | GATCTTAC | 0.124
130 | GATATTAA | 0.26
131 | AGCGAGCG | 0.076
132 | CTTCAAGA | -0.168
133 | GACACGTC | -0.0123
134 | ATCTCCTA | -0.138
135 | CTGAGCCC | -0.0863
136 | CTCTCTAA | -0.297
137 | ACTACACC | 0.128
138 | CAATAGAA | -0.16
139 | AGGTCTCC | -0.169
140 | ACTACGGG | 0.206
141 | GCCTGAGC | -0.0454
142 | ACGTGCAC | -0.21
143 | ATGGGGGG | -0.236
144 | GTGGCAAA | 0.095
145 | GAGCATTA | -0.15
146 | AGGAACGC | -0.0957
147 | CTTTCGGA | 0.225
148 | AATTTGGG | -0.182
149 | ACTGCGAG | 0.0445
150 | AGTGCCTA | -0.153

Row | Sequence | PBM E-score
151 | AACTCGAC | -0.133
152 | AGAGCGCA | 0.056
153 | ATCCCAAT | -0.241
154 | AAGAGGGT | -0.176
155 | AGTCAATC | -0.075
156 | CTAGCATC | -0.244
157 | ACAACTGT | -0.175
158 | AAGAGCTC | -0.143
159 | CGGGACGC | 0.187
160 | ACCCGATC | 0.19
161 | AAGTGCAG | -0.303
162 | CACCTAGG | 0.0145
163 | GAGAATAC | 0.0268
164 | CATGACAA | -0.264
165 | CAGCCAGG | -0.311
166 | CCTCTAGC | -0.105
167 | ACGCCATA | -0.191
168 | CCGCATGA | 0.0347
169 | AAGCCGCG | 0.287
170 | CCCCGTCC | 0.315
171 | GGTCTTAA | 0.355
172 | ACTGCCAG | -0.203
173 | AACACGTG | -0.162
174 | CTTTGTAC | -0.162
175 | ATACCCAT | -0.148

Row | Sequence | PBM E-score
176 | TCTTGAAA | 0.0338
177 | CTAGGCCA | -0.0954
178 | ACACAAGC | -0.169
179 | TGACTTAA | -0.0219
180 | AAATTCAA | 0.009
181 | CGAATCCC | 0.136
182 | ACACTACT | -0.0592
183 | CATCCTAA | 0.0742
184 | AGGGTTAA | -0.179
185 | CTGAGGAA | -0.157
186 | GGTCTTGA | 0.0653
187 | CTGCTATC | -0.114
188 | AATTCGGG | 0.148
189 | AAAGCCAG | -0.117
190 | AAAACGCA | 0.0671
191 | ACAGAATG | -0.304
192 | ACATTTGC | 0.0209
193 | GGCCGCTA | 0.299
194 | ACAACCCG | 0.075
195 | AATGGACC | 0.164
196 | ATAGTATC | 0.139
197 | AGCAAGTA | -0.25
198 | ACCTGATG | -0.215
199 | CGTTGGAC | -0.0247
200 | ACGGTGGC | 0.123

Row | Sequence | PBM E-score
201 | AAAGAAGA | -0.116
202 | AACGCAGG | -0.0218
203 | CCGGTATC | 0.305
204 | ACCCGGTG | 0.276
205 | ACGATGAA | 0.0901
206 | CAAATGGC | 0.134
207 | CGGTCTGC | 0.145
208 | AATTCCAT | -0.233
209 | CGACGAAA | -0.08
210 | GATAACCC | -0.0132
211 | ATTGTCCC | 0.0499
212 | GACTTGGA | 0.036
213 | GGCCAAAA | -0.0706
214 | AGATGCGG | 0.117
215 | CCAACCTA | -0.0471
216 | CACCATAG | -0.221
217 | CATAACAC | 0.0801
218 | CATCTCAG | -0.25
219 | CATGCAAA | -0.0617
